Assay results taken from the supplement of paper PMC9446081.
Among all 39,000 compounds or so, about 220 (0.56%) showed activity. This is one part of the list.

What follows are compounds tested on Escherichia coli K-12 BW25113 (assay: relative growth (OD600 normalised to plate interquartile mean) (fraction); higher = less growth inhibition, active = 0.2 or less). Details: 50 µM; LB; incubation time: overnight (16-24 h).
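Also: static incubation at 37 °C against the wild-type strain, values averaged over two biological replicates.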

| SMILES | relative growth |
| --- | --- |
| Cc1noc(C)c1S(=O)(=O)N(C)C[C@H]1Oc2ccc(NC(=O)CCCN(C)C)cc2CC(=O)N([C@H](C)CO)C[C@@H]1C | inactive: 0.976 |
| C[C@@H]1CCCCO[C@H](CN(C)S(=O)(=O)c2ccc(F)cc2)[C@H](C)CN([C@@H](C)CO)C(=O)c2cc(NC(=O)NC3CCCCC3)ccc2O1 | inactive: 1.01 |
| CC(=O)OC[C@H]1OC[C@H](OC(C)=O)[C@@H](OC(C)=O)[C@H]1OC(C)=O | inactive: 0.972 |
| CC(C)NC(=O)Nc1ccc2c(c1)C(=O)N([C@@H](C)CO)C[C@@H](C)[C@H](CN(C)Cc1ccccc1)OCCCC[C@H](C)O2 | inactive: 1.02 |
| CC(=O)OC1CC(OC(C)=O)C2(C)C(CC(OC(C)=O)C3(C)C4=CC(=O)OC(c5ccoc5)C4(C)CCC32)C1(C)C (stereo not drawn) | inactive: 0.992 |
| O=C(O)C1=C[C@@H](O)[C@H](O)[C@H](O)C1 | inactive: 1.01 |
| C[C@@H]1CCCCO[C@H](CN(C)C(=O)Nc2cccc3ccccc23)[C@@H](C)CN([C@@H](C)CO)C(=O)c2cc(N(C)C)ccc2O1 | inactive: 1 |
| Cc1noc(C)c1S(=O)(=O)N(C)C[C@@H]1Oc2ccc(NS(C)(=O)=O)cc2CC(=O)N([C@H](C)CO)C[C@@H]1C | inactive: 1.06 |
| C[C@@H]1CCCCO[C@@H](CN(C)C(=O)Nc2ccc3c(c2)OCO3)[C@@H](C)CN([C@H](C)CO)C(=O)c2cc(NC(=O)Nc3ccc(F)cc3)ccc2O1 | inactive: 1.03 |
| O=C(C[C@@H]1CC[C@@H]2[C@H](COC[C@@H](O)CN2Cc2cccc(C(F)(F)F)c2)O1)NCCc1ccncc1 | inactive: 0.93 |
| COc1ccc(S(=O)(=O)Nc2ccc3c(c2)CC(=O)N([C@H](C)CO)C[C@H](C)[C@H](CN(C)S(=O)(=O)c2ccccc2)O3)cc1 | inactive: 1 |
| C[C@H](CO)N1C[C@H](C)[C@@H](CN(C)C(=O)c2cc(-c3ccccc3)on2)OCc2cn(nn2)CCCC1=O | inactive: 0.997 |
| COC(=O)[C@@H]1C(=O)NC[C@H]1c1cccnc1 | inactive: 0.996 |
| CN1C(=O)[C@@H](O)N(c2ccccc2)C1=O | inactive: 1.02 |
| CC(=O)c1ccc(OCc2c(-c3ccccc3)nnn2CC(=O)NS(=O)(=O)Cc2ccccc2)cc1 | inactive: 1.01 |
| COc1ccc(NC(=O)Nc2ccc3c(c2)CC(=O)N([C@H](C)CO)C[C@H](C)[C@@H](CN(C)Cc2ccc(Cl)c(Cl)c2)O3)cc1 | inactive: 0.999 |
| C[C@@H]1CN([C@@H](C)CO)C(=O)c2cc(C#CC3(O)CCCC3)cnc2O[C@@H]1CN(C)C(=O)CN(C)C | inactive: 1.02 |
| COCCNC(=O)C[C@@H]1CC[C@@H]2[C@H](COC[C@H](O)CN2S(=O)(=O)c2ccccc2C)O1 | inactive: 0.986 |
| C[C@@H]1CN([C@H](C)CO)C(=O)c2c(c3ccccc3n2C)-c2ccccc2CO[C@H]1CN(C)C(=O)Nc1cccc(F)c1 | inactive: 1.04 |

| SMILES | relative growth |
| --- | --- |
| C[C@H](CO)N1C[C@H](C)[C@@H](CN(C)Cc2ccc(C(=O)O)cc2)Oc2c(NS(=O)(=O)c3cn(C)cn3)cccc2C1=O | inactive: 0.989 |
| C[C@@H]1CN([C@H](C)CO)C(=O)Cc2cc(NC(=O)Cc3ccccc3)ccc2O[C@@H]1CN(C)Cc1ccc(Oc2ccccc2)cc1 | inactive: 0.998 |
| C[C@@H]1CN([C@@H](C)CO)C(=O)c2cc(-c3cccc(C(=O)N(C)C)c3)cnc2O[C@H]1CN(C)S(=O)(=O)c1ccc(F)cc1 | inactive: 1 |
| COc1ccc(S(=O)(=O)Nc2ccc3c(c2)CC(=O)N([C@@H](C)CO)C[C@H](C)[C@@H](CN(C)Cc2ccc(-c4ccccc4)cc2)O3)cc1 | inactive: 0.998 |
| COc1ccc2c3c(n(c2c1)C)[C@@H](CO)N(C[C@]13CCN(CC1)S(=O)(=O)C)C(=O)CN(C)C | inactive: 0.962 |
| COc1ccc(S(=O)(=O)Nc2ccc3c(c2)C(=O)N([C@H](C)CO)C[C@@H](C)[C@H](CN(C)Cc2ccc4c(c2)OCO4)OCCCC[C@H](C)O3)cc1 | inactive: 0.988 |
| C[C@@H]1CN([C@H](C)CO)C(=O)c2c(c3ccccc3n2C)-c2ccccc2CO[C@H]1CN(C)C(=O)Nc1cccc(Cl)c1Cl | inactive: 1.02 |
| CNC[C@H]1OCCCC[C@@H](C)Oc2ccc(NS(=O)(=O)c3cn(C)cn3)cc2C(=O)N([C@H](C)CO)C[C@@H]1C | inactive: 0.992 |
| O=C(C[C@H]1C=C[C@H](NC(=O)CN2CCOCC2)[C@@H](CO)O1)NC1CCC1 | inactive: 1.01 |
| COc1cccc(S(=O)(=O)N2C[C@H](O)COC[C@@H]3O[C@H](CC(=O)N4CCOCC4)CC[C@H]32)c1 | inactive: 0.991 |
| Cc1noc(C)c1S(=O)(=O)Nc1ccc2c(c1)CC(=O)N([C@H](C)CO)C[C@@H](C)[C@@H](CN(C)Cc1ccncc1)O2 | inactive: 1.01 |
| C[C@@H]1CN([C@H](C)CO)C(=O)CCCn2nncc2CO[C@H]1CN(C)C(=O)Nc1cccc(Oc2ccccn2)c1 | inactive: 0.935 |
| Cc1noc(C)c1NC(=O)N(C)C[C@@H]1OCCCC[C@H](C)Oc2ccc(NC(=O)Nc3ccc(C(F)(F)F)cc3)cc2C(=O)N([C@@H](C)CO)C[C@H]1C | inactive: 1.02 |
| CO[C@@H]1CN(C)C(=O)c2cc(NS(=O)(=O)CC(F)(F)F)ccc2OC[C@H](C)N(C(=O)NC(C)C)C[C@H]1C | inactive: 1 |
| C[C@H]1CN([C@@H](C)CO)C(=O)c2cccc(NC(=O)Nc3ccc(C(F)(F)F)cc3)c2O[C@@H]1CN(C)S(C)(=O)=O | inactive: 0.934 |
| C[C@H]1CC/C=C\[C@H]2O[C@@]34C=CCN(c5ccc6ccccc6c5)C(=O)[C@H]3N(CCCO)C(=O)[C@@H]4[C@@H]2C(=O)O1 | inactive: 0.969 |
| C[C@H]1CCCCO[C@@H](CN(C)C(=O)Nc2ccc3c(c2)OCO3)[C@@H](C)CN([C@@H](C)CO)C(=O)c2cc(NC(=O)c3ccccc3)ccc2O1 | inactive: 1.02 |
| C[C@@H]1CN([C@H](C)CO)S(=O)(=O)c2ccc(C#Cc3ccccn3)cc2O[C@@H]1CN(C)Cc1ccccc1 | inactive: 1.03 |
| C[C@H](CO)N1C[C@H](C)[C@H](CN(C)Cc2ccc(Cl)c(Cl)c2)Oc2c(NC(=O)Nc3ccc4c(c3)OCO4)cccc2C1=O | inactive: 1 |
